About 60 (0.1%) of roughly 46,000 compounds were called active. Inconclusive results (about 3%) are left out. Calls come from the whole dose curve; as a rule, active = well fitted inhibition curve with a large enough effect; inconclusive = small, poorly fitted or top-dose-only effect; inactive = no such curve, though single readings can be large or run the other way. The list shows a part of the results.
Assay: Primary qHTS assay for Inhibitors of ovarian cancer metastasis using an organotypic tumor microenvironment (TME) model.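 For activity change, negative = inhibition: plate controls were DMSO wells for no effect and tomatine positive control wells for full effect.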 Note: nearly all actives have a fitted effect of over 65% in size.
Conditions: SKOV3ip1-GFP adhesion/invasion on 3D omental model, fluorescence; series mostly up to 45.8 µM; activity change, negative = inhibition: at the top concentration
Method in brief: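 Primary human omental fibroblast/mesothelial 3D culture pre-formed 48 h. SKOV3ip1-GFP cells added with compounds (0.36-46 umol/L), incubated 2 h RT/16 h 37 C, fixed; GFP cells quantified at 488/509 nm.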

outcome, inactive:
CCc1cccc(NC(=O)Nc2cn(C)c(=O)c3ccccc23)c1
COc1cccc(NC(=O)C2CCN(S(=O)(=O)c3c(C)noc3C)CC2)c1
CCCCc1nc(SCC(=O)Nc2ccc(S(N)(=O)=O)cc2)n[nH]1
COc1ccc(-n2c(=O)c3c4c(sc3n(Cc3ccc(C)cc3C)c2=O)CCC4)c(OC)c1
CCC(C(=O)Nc1ccc(C(C)=O)cc1)n1cnc2nc3c(cc2c1=O)CCCC3 (stereo not given)
Cc1cc(C)cc(NC(=O)CCc2nnc3n(C)c(=O)c4sccc4n23)c1
CCOc1ccc(N2C(=O)CS(=O)(=O)C23C(=O)N(Cc2cccc(Cl)c2)c2ccccc23)cc1 (stereo not given)
CCOC(=O)c1c(C)[nH]c(C)c1S(=O)(=O)N(C)CC(=O)N1CCN(c2ccc(Cl)cc2)CC1
COc1ccc2c(C)c(CCC(=O)NCc3ccc(C)cc3)c(=O)oc2c1
CCOC(=O)CC(NC(=O)c1cc2cc(Br)cc(OC)c2oc1=O)c1ccc(OC)cc1 (stereo not given)
COc1cccc(N2CCN(C(=O)C3CCCN(S(=O)(=O)c4ccc5c(c4)oc(=O)n5C)C3)CC2)c1 (stereo not given)
CCC(=O)N1CCc2cc(Br)cc(S(=O)(=O)N3CCCC(C(=O)NCc4ccc(F)cc4)C3)c21 (stereo not given)
CCOc1ccccc1NC(=O)C1CCN(S(=O)(=O)c2ccc3[nH]c(=O)ccc3c2)CC1
CCc1ccc(NC(=O)COC(=O)CCCC2=NS(=O)(=O)c3ccccc3N2)cc1

Activity change, negative = inhibition, inactive:
Cc1ccc(C(=O)COC(=O)c2cc(-c3cccs3)nc3ccccc23)cc1 -0.0125%
Cc1ccc(NC(=O)Cn2c(=O)n(CC(=O)NCCc3ccccc3)c(=O)c3ccccc32)cc1C 38.4%
CCc1nc2ccccc2n2c(-c3ccccc3)c3c(=O)n(C)c(=O)n(C)c3c12 -3.81%
CCc1c(C)nc2nncn2c1Nc1ccc(Cl)cc1 -7.37%
COc1cc(C(CC(=O)NCc2ccccc2)N2Cc3ccccc3C2=O)cc(OC)c1OC (stereo not given) -2.15%
COc1ccc(OC)c(CNC(=O)Cn2ncc3c([nH]c4ccc(C)cc43)c2=O)c1 3.5%
CCOc1ccccc1NS(=O)(=O)c1ccc2c(c1)CC(C)N2C(=O)C1CC1 (stereo not given) -30.1%
Cc1cc(C)n2nc(CNC(=O)c3ccccc3Cl)nc2n1 35%
CC1=C(C(=O)Nc2cc(Cl)ccc2C)C2(CCCCC2)OC1=O 7.56%
O=C(NCCc1csc(-c2ccc(F)cc2)n1)c1ccco1 -6.38%
CC(C)(C)OC(=O)N1CCC(c2c(C(=O)NCCc3ccsc3)cnn2-c2ccccc2Cl)CC1 -17.3%
CCC(CC)C(=O)OCc1cc(=O)n2nc(C3CCCCC3)sc2n1 3.6%
Cc1ccc(-c2c(C(=O)N3CCN(c4cccc(C)c4)C(C)C3)oc(=O)c3ccccc23)cc1 (stereo not given) 58.7%
CCOc1ccc(CN2CCc3nc(N4CCN(c5ncccn5)CC4)ncc3C2)cc1OC -5.52%
CCOc1ccc(NC(=O)C2CCN(c3nc4ccccc4[nH]3)CC2)cc1 2.39%
COC(=O)c1c(SC)nc2ccccc2c1OCc1ccccc1Cl -0.432%
CCSc1ccc(C(=O)Nc2ccc(-c3nc4ccc(C)cc4s3)cc2)cc1 -7.77%
COc1ccc(S(=O)(=O)NCCc2nnc3ccc(SCC(=O)Nc4cc(C)cc(C)c4)nn23)cc1 5.15%
O=C(Nc1cccc(OCc2cc(=O)n3ccccc3n2)c1)c1ccccc1Br -2.45%
CCC1CN(C(=O)NCc2ccccc2)c2cc(Cl)ccc2O1 (stereo not given) -7.2%
Cc1ccc(-c2nc3c(c(SCC(=O)N(C)c4ccccc4)n2)Cc2c(CO)cnc(C)c2O3)cc1 0.984%
CCN(CC)c1cc(C)c2cc(NC(=O)c3ccccc3Cl)ccc2n1 -3.98%
CCOC(=O)c1ccc(NC(=O)CSc2ccc(-c3ccccn3)nn2)cc1 -16.7%
CCOC(=O)C(=O)NCC(c1cccnc1)N1CCN(c2ccccc2)CC1 (stereo not given) -4.97%
Cn1cnc2c(=O)oc3ccc(S(=O)(=O)N4CCN(c5cccc(C(F)(F)F)c5)CC4)cc3c21 5.73%
CC(C)(C)OC(=O)N1CCC(c2c(C(=O)Nc3ccc4c(c3)OCCO4)cnn2-c2ccc(F)cc2F)CC1 -8.44%
COc1ccc(OC)c(CCNC(=O)c2cc3cccc4c3n2CC(C)S4)c1 (stereo not given) 62.4%
Cn1c(=O)c2c(nc(CN3CCN(c4ccccc4F)CC3)n2Cc2ccccc2F)n(C)c1=O 21%
Cn1c2ccccc2c2c(C(=O)N3CCN(c4cccc(Cl)c4)CC3)cn(C3CCCCC3)c(=O)c21 -8.23%
COc1ccccc1CCNC(=O)C(=O)NCC(c1ccco1)S(=O)(=O)c1ccc(F)cc1 (stereo not given) 9.71%
O=C1C(=O)N(C2CCN(S(=O)(=O)c3ccccc3)CC2)CCN1Cc1ccccc1 4.7%
O=C(NCc1ccc2c(c1)CCN2C(=O)c1ccncc1)c1ccccc1Cl 4.97%
Cn1c(=O)n(C)c2cc(N3CCOCC3)c(NC(=O)c3ccc(Cl)cc3)cc21 -13.5%
COc1cccc(CNC(=O)CCCn2ncn3c(cc4occc43)c2=O)c1OC -2.46%
CCSc1ncc(Cl)c(C(=O)Nc2ccc(S(=O)(=O)Nc3ncccn3)cc2)n1 -3.13%
Cc1cccc(C(=O)Nc2nc3nc(-c4ccccc4)cc(=O)n3[nH]2)c1 -7.86%
COC(=O)CN1C(=O)CSc2ccc(S(=O)(=O)Nc3cccc(C)c3)cc21 -10.8%
Cn1cc(S(=O)(=O)N2CCCCCC2)cc1C(=O)N1CCN(c2cccc(C(F)(F)F)c2)CC1 -1.99%
Cc1ccn2c(=O)cc(COc3ccc(NC(=O)COc4ccccc4)cc3)nc2c1 -2.4%
Cc1ccc(S(=O)(=O)N2CCN(Cc3cc(Br)ccc3O)CC2)cc1 -8.78%
CCOc1ccc(CCNC(=O)C2CCN(Cc3nc(-c4ccc(OC)c(OC)c4)oc3C)CC2)cc1OCC 3.76%
COc1cc(-c2nc(-c3ccc4c(c3)[nH]c(=O)n4C)no2)cc(OC)c1OC -17.3%
O=C1CSC2(C(=O)N(Cc3ccccc3)c3ccccc32)N1c1cccc(F)c1 (stereo not given) 4.08%
N#Cc1ccccc1NC(=O)C(=O)NCCc1csc(-c2ccc(C(F)(F)F)cc2)n1 -17.3%
Cc1cccc(CCNC(=O)c2ccc3c(c2)nc2n3CCC(C)C2)c1 (stereo not given) -15%
COc1cc2c(cc1OC)C1CC(=O)C(CC(C)C)CN1CC2 (stereo not given) -15.4%

From PubChem BioAssay AID1963576 (National Center for Advancing Translational Sciences (NCATS), 2024)
